The other results are listed elsewhere or left out. Cleavage of a single-stranded DNA pool by Rep nickase domains was read by sequencing (3 µM enzyme, 1 h, 37 °C); shown is the middle of each 90-letter strand. Uncut reads are compared with the no-enzyme pool on a log2 scale; uncut sequences lie near 0, cut ones below; no hit call is given. The scaling is to total reads, so uncut sequences can rise above 0 when many others are cut.

The first experiment has as its system T1, Rep nickase domain of tomato yellow leaf curl virus.
T1 sequence (residues 1-136 of Rep, tag left off): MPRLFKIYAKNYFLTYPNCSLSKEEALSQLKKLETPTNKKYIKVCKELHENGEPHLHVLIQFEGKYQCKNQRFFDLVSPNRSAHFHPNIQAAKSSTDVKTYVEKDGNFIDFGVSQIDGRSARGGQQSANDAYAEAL
In words: uncleaved DNA left, log2 of reads against the no-enzyme library (log2 ratio); higher = less cleavage (more negative = more Rep cleavage of the k-mer); sequences stand for … in CTCGTCCG…ACCGGAGA
The procedure: (§1)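 A pool of 90-nt single-stranded DNAs with seven random bases just before the constant AC of the nick site (name = the seven bases) was cut by 3 µM recombinant His6-SUMO-tagged Rep nickase domain (300 nM DNA, 50 mM HEPES pH 8.0, 50 mM NaCl, 1 mM MnCl2, 1 h, 37 °C, three replicates). Uncut DNA was amplified and sequenced.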
On to GGAATAG, for which the “uncleaved DNA left (log2)” value was 0.093.

For TCATGAG, the “uncleaved DNA left (log2)” value amounted to 0.0674.

Regarding ACACACC, the “uncleaved DNA left (log2)” value was -0.124.

For GTAACAC, the “uncleaved DNA left (log2)” value was found to be 0.192.

For the sequence TAAGACT, the “uncleaved DNA left (log2)” value worked out at 0.118.

Turning to CCGGCCT, the “uncleaved DNA left (log2)” value turned out to be 0.0201.

Turning to TGCGTAA, the “uncleaved DNA left (log2)” value worked out at 0.0356.

Regarding GAAAGGG, the “uncleaved DNA left (log2)” value was determined as 0.0633.

With TCGTCCA, the “uncleaved DNA left (log2)” value was determined as 0.00455.

For the sequence ATGTCAC, the “uncleaved DNA left (log2)” value amounted to 0.0124.

Turning to AACTCCG, the “uncleaved DNA left (log2)” value came out at 0.0569.

Turning to GGTGATT, the “uncleaved DNA left (log2)” value was -0.0588.

Turning to ACGATCA, the “uncleaved DNA left (log2)” value is 0.0032.

For the sequence GGTGCGT, the “uncleaved DNA left (log2)” value was -0.0596.

Consider TAGCCGT, for which the “uncleaved DNA left (log2)” value stood at 0.0553.

For CTATAAC, the “uncleaved DNA left (log2)” value was -0.197.

Regarding CCGCTTT, the “uncleaved DNA left (log2)” value is -0.122.

Turning to ATGAGAT, the “uncleaved DNA left (log2)” value was -0.0354.

For AGACTAA, the “uncleaved DNA left (log2)” value came to 0.137.

As for AAATCAC, the “uncleaved DNA left (log2)” value came out at 0.12.

For ATACGAT, the “uncleaved DNA left (log2)” value was -0.0225.

With TTACATC, the “uncleaved DNA left (log2)” value is -0.0704.

Regarding GGAGCAA, the “uncleaved DNA left (log2)” value stood at 0.115.

Turning to GCCGATG, the “uncleaved DNA left (log2)” value was -0.154.

As for GTTGTGC, the “uncleaved DNA left (log2)” value was -0.0154.

GTTTTCA: the “uncleaved DNA left (log2)” value was 0.136.

Consider CCCCTCG, for which the “uncleaved DNA left (log2)” value was -0.183.

CCATTCT: the “uncleaved DNA left (log2)” value was found to be 0.0731.

In the case of CATTTCC, the “uncleaved DNA left (log2)” value is -0.0131.

As to GTTCACA, the “uncleaved DNA left (log2)” value stood at 0.045.

In the case of CTGGCAT, the “uncleaved DNA left (log2)” value was -0.0833.

Take AATAAGG: the “uncleaved DNA left (log2)” value was -0.00347.

Regarding GACACGT, the “uncleaved DNA left (log2)” value stood at 0.163.

For the sequence ATCCCGA, the “uncleaved DNA left (log2)” value is -0.0965.

As to ATATAGT, the “uncleaved DNA left (log2)” value was -0.0662.

In the case of TGGCTCG, the “uncleaved DNA left (log2)” value is -0.215.

In the case of ATCGAAC, the “uncleaved DNA left (log2)” value is -0.0409.

In the case of CACGTTT, the “uncleaved DNA left (log2)” value is -0.0452.

TCGGGGT: the “uncleaved DNA left (log2)” value was -0.166.

Another experiment relates to T2, Rep nickase domain of wheat dwarf virus.
T2 sequence (residues 1-137 of Rep, tag left off): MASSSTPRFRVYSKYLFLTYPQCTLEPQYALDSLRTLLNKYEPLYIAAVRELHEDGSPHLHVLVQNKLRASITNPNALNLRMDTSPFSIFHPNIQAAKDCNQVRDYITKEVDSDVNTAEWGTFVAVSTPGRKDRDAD
Described as above. The procedure:
as §1
For the sequence GGAATAG, the “uncleaved DNA left (log2)” value was determined as 0.181.

For TCATGAG, the “uncleaved DNA left (log2)” value was -0.11.

On to ACACACC, for which the “uncleaved DNA left (log2)” value was -0.018.

For GTAACAC, the “uncleaved DNA left (log2)” value worked out at 0.209.

With TAAGACT, the “uncleaved DNA left (log2)” value was -0.26.

For CCGGCCT, the “uncleaved DNA left (log2)” value is -0.311.

In the case of TGCGTAA, the “uncleaved DNA left (log2)” value was -0.044.

Consider GAAAGGG, for which the “uncleaved DNA left (log2)” value came to 0.11.

For TCGTCCA, the “uncleaved DNA left (log2)” value is 0.119.

Turning to ATGTCAC, the “uncleaved DNA left (log2)” value is 0.04.

Consider AACTCCG, for which the “uncleaved DNA left (log2)” value came out at 0.00351.

For GGTGATT, the “uncleaved DNA left (log2)” value is 0.0274.

Turning to ACGATCA, the “uncleaved DNA left (log2)” value was determined as 0.147.

Regarding GGTGCGT, the “uncleaved DNA left (log2)” value was -0.174.

On to TAGCCGT, for which the “uncleaved DNA left (log2)” value was 0.0334.

Take CTATAAC: the “uncleaved DNA left (log2)” value is -0.0733.

Consider CCGCTTT, for which the “uncleaved DNA left (log2)” value was -0.218.

ATGAGAT: the “uncleaved DNA left (log2)” value came out at 0.158.

Consider AGACTAA, for which the “uncleaved DNA left (log2)” value came to 0.113.

With AAATCAC, the “uncleaved DNA left (log2)” value is -0.224.

In the case of ATACGAT, the “uncleaved DNA left (log2)” value worked out at 0.0366.

For the sequence TTACATC, the “uncleaved DNA left (log2)” value is -0.0272.

On to GGAGCAA, for which the “uncleaved DNA left (log2)” value turned out to be 0.238.

Turning to GCCGATG, the “uncleaved DNA left (log2)” value is -0.174.

GTTGTGC: the “uncleaved DNA left (log2)” value amounted to 0.00539.

GTTTTCA: the “uncleaved DNA left (log2)” value came out at 0.192.

In the case of CCCCTCG, the “uncleaved DNA left (log2)” value was -0.0469.

Regarding CCATTCT, the “uncleaved DNA left (log2)” value was -0.0895.

Regarding CATTTCC, the “uncleaved DNA left (log2)” value is -0.00825.

With GTTCACA, the “uncleaved DNA left (log2)” value was 0.0792.

Consider CTGGCAT, for which the “uncleaved DNA left (log2)” value is 0.0953.

On to AATAAGG, for which the “uncleaved DNA left (log2)” value was 0.107.

GACACGT: the “uncleaved DNA left (log2)” value turned out to be 0.109.

With ATCCCGA, the “uncleaved DNA left (log2)” value is -0.0474.

Turning to ATATAGT, the “uncleaved DNA left (log2)” value is -0.248.

Consider TGGCTCG, for which the “uncleaved DNA left (log2)” value is -0.208.

ATCGAAC: the “uncleaved DNA left (log2)” value was -0.042.

On to CACGTTT, for which the “uncleaved DNA left (log2)” value was -0.208.

As to TCGGGGT, the “uncleaved DNA left (log2)” value is -0.0768.

The values above are taken from the supplement of paper PMC7826260.
